# Test results: the supplement of paper PMC8728848
# This is one part of the list.
# Tests used:
# Test in all cases: glycan array binding signal (z-score within array); higher = stronger binding
# Conditions in all cases: glycan notation: IUPAC condensed, linker removed
# [1] = biological target: Gal(b1-4)GlcNAc(b1-3)Gal(b1-4)GlcNAc(b1-2)Man(a1-3)[Gal(b1-4)GlcNAc(b1-3)Gal(b1-4)GlcNAc(b1-2)Man(a1-6)]Man(b1-4)GlcNAc(b1-4)[Fuc(a1-6)]GlcNAc
# In short: (§1)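 Columns mapping to the same glycan were averaged after glycan names were converted to IUPAC-condensed notation. The data come from 3228 arrays in the Consortium for Functional Glycomics database, limited to those with an available protein sequence. Binding is reported as a within-array Z-score averaged across arrays of one protein sequence and across linkers.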
# [2] = biological target: Gal(b1-4)GlcNAc(b1-3)Gal(b1-4)GlcNAc(b1-2)[Gal(b1-4)GlcNAc(b1-3)Gal(b1-4)GlcNAc(b1-6)]Man(a1-6)[Gal(b1-4)GlcNAc(b1-3)Gal(b1-4)GlcNAc(b1-2)Man(a1-3)]Man(b1-4)GlcNAc(b1-4)GlcNAc
# In short: as §1
# [3] = biological target: Gal(b1-4)GlcNAc(b1-3)Gal(b1-4)GlcNAc(b1-2)[Gal(b1-4)GlcNAc(b1-3)Gal(b1-4)GlcNAc(b1-6)]Man(a1-6)[Gal(b1-4)GlcNAc(b1-3)Gal(b1-4)GlcNAc(b1-2)Man(a1-3)]Man(b1-4)GlcNAc(b1-4)[Fuc(a1-6)]GlcNAc
# In short: as §1
# [4] = biological target: Gal(b1-4)GlcNAc(b1-3)Gal(b1-4)GlcNAc(b1-3)Gal(b1-4)GlcNAc
# In short: as §1
# [5] = biological target: Gal(b1-4)GlcNAc(b1-3)Gal(b1-4)GlcNAc(b1-3)Gal(b1-4)GlcNAc(b1-2)Man(a1-3)[Gal(b1-4)GlcNAc(b1-3)Gal(b1-4)GlcNAc(b1-3)Gal(b1-4)GlcNAc(b1-2)Man(a1-6)]Man(b1-4)GlcNAc(b1-4)GlcNAc
# In short: as §1
# [6] = biological target: Gal(b1-4)GlcNAc(b1-3)Gal(b1-4)GlcNAc(b1-3)Gal(b1-4)GlcNAc(b1-2)Man(a1-3)[Gal(b1-4)GlcNAc(b1-3)Gal(b1-4)GlcNAc(b1-3)Gal(b1-4)GlcNAc(b1-2)Man(a1-6)]Man(b1-4)GlcNAc(b1-4)[Fuc(a1-6)]GlcNAc
# In short: as §1
# [7] = biological target: Gal(b1-4)GlcNAc(b1-3)Gal(b1-4)GlcNAc(b1-3)Gal(b1-4)GlcNAc(b1-2)[Gal(b1-4)GlcNAc(b1-3)Gal(b1-4)GlcNAc(b1-3)Gal(b1-4)GlcNAc(b1-6)]Man(a1-6)[Gal(b1-4)GlcNAc(b1-3)Gal(b1-4)GlcNAc(b1-3)Gal(b1-4)GlcNAc(b1-2)Man(a1-3)]Man(b1-4)GlcNAc(b1-4)[Fuc(a1-6)]GlcNAc
# In short: as §1
# [8] = biological target: Gal(b1-4)GlcNAc(b1-3)Gal(b1-4)GlcNAc(b1-3)Gal(b1-4)GlcNAc(b1-3)Gal(b1-4)GlcNAc(b1-2)Man(a1-3)[Gal(b1-4)GlcNAc(b1-3)Gal(b1-4)GlcNAc(b1-3)Gal(b1-4)GlcNAc(b1-3)Gal(b1-4)GlcNAc(b1-2)Man(a1-6)]Man(b1-4)GlcNAc(b1-4)GlcNAc
# In short: as §1
# [9] = biological target: Gal(b1-4)GlcNAc(b1-3)Gal(b1-4)GlcNAc(b1-3)Gal(b1-4)GlcNAc(b1-3)Gal(b1-4)GlcNAc(b1-2)Man(a1-3)[Gal(b1-4)GlcNAc(b1-3)Gal(b1-4)GlcNAc(b1-3)Gal(b1-4)GlcNAc(b1-3)Gal(b1-4)GlcNAc(b1-2)Man(a1-6)]Man(b1-4)GlcNAc(b1-4)[Fuc(a1-6)]GlcNAc
# In short: as §1
# [10] = biological target: Gal(b1-4)GlcNAc(b1-3)Gal(b1-4)GlcNAc(b1-3)Gal(b1-4)GlcNAc(b1-3)Gal(b1-4)GlcNAc(b1-2)[Gal(b1-4)GlcNAc(b1-3)Gal(b1-4)GlcNAc(b1-3)Gal(b1-4)GlcNAc(b1-3)Gal(b1-4)GlcNAc(b1-6)]Man(a1-6)[Gal(b1-4)GlcNAc(b1-3)Gal(b1-4)GlcNAc(b1-3)Gal(b1-4)GlcNAc(b1-3)Gal(b1-4)GlcNAc(b1-2)Man(a1-3)]Man(b1-4)GlcNAc(b1-4)[Fuc(a1-6)]GlcNAc
# In short: as §1
# [11] = biological target: Gal(b1-4)GlcNAc(b1-3)Gal(b1-4)GlcNAc(b1-3)Gal(b1-4)GlcNAc(b1-3)Gal(b1-4)GlcNAc(b1-3)Gal(b1-4)GlcNAc(b1-2)Man(a1-3)[Gal(b1-4)GlcNAc(b1-3)Gal(b1-4)GlcNAc(b1-3)Gal(b1-4)GlcNAc(b1-3)Gal(b1-4)GlcNAc(b1-3)Gal(b1-4)GlcNAc(b1-2)Man(a1-6)]Man(b1-4)GlcNAc(b1-4)GlcNAc
# In short: as §1
# [12] = biological target: Gal(b1-4)GlcNAc(b1-3)Gal(b1-4)GlcNAc(b1-3)Gal(b1-4)GlcNAc(b1-3)Gal(b1-4)GlcNAc(b1-3)Gal(b1-4)GlcNAc(b1-2)Man(a1-3)[Gal(b1-4)GlcNAc(b1-3)Gal(b1-4)GlcNAc(b1-3)Gal(b1-4)GlcNAc(b1-3)Gal(b1-4)GlcNAc(b1-3)Gal(b1-4)GlcNAc(b1-2)Man(a1-6)]Man(b1-4)GlcNAc(b1-4)[Fuc(a1-6)]GlcNAc
# In short: as §1
# [13] = biological target: Gal(b1-4)GlcNAc(b1-3)Gal(b1-4)GlcNAc(b1-3)Gal(b1-4)GlcNAc(b1-3)Gal(b1-4)GlcNAc(b1-3)Gal(b1-4)GlcNAc(b1-2)[Gal(b1-4)GlcNAc(b1-3)Gal(b1-4)GlcNAc(b1-3)Gal(b1-4)GlcNAc(b1-3)Gal(b1-4)GlcNAc(b1-3)Gal(b1-4)GlcNAc(b1-6)]Man(a1-6)[Gal(b1-4)GlcNAc(b1-3)Gal(b1-4)GlcNAc(b1-3)Gal(b1-4)GlcNAc(b1-3)Gal(b1-4)GlcNAc(b1-3)Gal(b1-4)GlcNAc(b1-2)Man(a1-3)]Man(b1-4)GlcNAc(b1-4)[Fuc(a1-6)]GlcNAc
# In short: as §1
# [14] = biological target: Gal(b1-4)GlcNAc(b1-3)Gal(b1-4)GlcNAc(b1-3)Gal(b1-4)GlcNAc(b1-3)Gal(b1-4)GlcNAc(b1-3)Gal(b1-4)GlcNAc(b1-3)Gal(b1-4)GlcNAc(b1-2)Man(a1-3)[Gal(b1-4)GlcNAc(b1-3)Gal(b1-4)GlcNAc(b1-3)Gal(b1-4)GlcNAc(b1-3)Gal(b1-4)GlcNAc(b1-3)Gal(b1-4)GlcNAc(b1-3)Gal(b1-4)GlcNAc(b1-2)Man(a1-6)]Man(b1-4)GlcNAc(b1-4)GlcNAc
# In short: as §1
# [15] = biological target: Gal(b1-4)GlcNAc(b1-3)Gal(b1-4)GlcNAc(b1-3)GalNAc
# In short: as §1
# [16] = biological target: Gal(b1-4)GlcNAc(b1-3)Gal(b1-4)GlcNAc(b1-3)[Gal(b1-4)GlcNAc(b1-3)Gal(b1-4)GlcNAc(b1-6)]GalNAc
# In short: as §1
# [17] = biological target: Gal(b1-4)GlcNAc(b1-3)Gal(b1-4)GlcNAc(b1-6)[Gal(b1-3)]GalNAc
# In short: as §1
# [18] = biological target: Gal(b1-4)GlcNAc(b1-3)Gal(b1-4)[Fuc(a1-3)]GlcNAc(b1-3)Gal(b1-4)[Fuc(a1-3)]GlcNAc
# In short: as §1
# [19] = biological target: Gal(b1-4)GlcNAc(b1-3)GalNAc
# In short: as §1
# [20] = biological target: Gal(b1-4)GlcNAc(b1-3)[Fuc(a1-3)GlcNAc(b1-6)]Gal(b1-4)Glc
# In short: as §1
# [21] = biological target: Gal(b1-4)GlcNAc(b1-3)[Gal(b1-4)GlcNAc(b1-6)]Gal(b1-4)GlcNAc
# In short: as §1
# [22] = biological target: Gal(b1-4)GlcNAc(b1-3)[Gal(b1-4)GlcNAc(b1-6)]GalNAc
# In short: as §1
# [23] = biological target: Gal(b1-4)GlcNAc(b1-3)[GlcNAc(b1-6)]Gal(b1-4)GlcNAc
# In short: as §1
# [24] = biological target: Gal(b1-4)GlcNAc(b1-6)Gal(b1-4)GlcNAc
# In short: as §1
# [25] = biological target: Gal(b1-4)GlcNAc(b1-6)GalNAc
# In short: as §1
# [26] = biological target: Gal(b1-4)GlcNAc(b1-6)[Gal(b1-3)]GalNAc
# In short: as §1
# [27] = biological target: Gal(b1-4)GlcNAc(b1-6)[Gal(b1-3)]GlcNAc
# In short: as §1
# [28] = biological target: Gal(b1-4)GlcNAc(b1-6)[Gal(b1-4)GlcNAc(b1-3)]GalNAc
# In short: as §1
# [29] = biological target: Gal(b1-4)GlcNAc6P
# In short: as §1
# [30] = biological target: Gal(b1-6)Gal
# In short: as §1
# [31] = biological target: Gal3S(b1-3)GalNAc
# In short: as §1
# [32] = biological target: Gal3S(b1-3)GlcNAc
# In short: as §1
# [33] = biological target: Gal3S(b1-3)[Fuc(a1-4)]GlcNAc
# In short: as §1
# [34] = biological target: Gal3S(b1-4)Glc
# In short: as §1
# [35] = biological target: Gal3S(b1-4)Glc6S
# In short: as §1
# [36] = biological target: Gal3S(b1-4)GlcNAc
# In short: as §1
# [37] = biological target: Gal3S(b1-4)GlcNAc6S
# In short: as §1
# [38] = biological target: Gal3S(b1-4)[Fuc(a1-3)]Glc6S
# In short: as §1
binder,measurement,setting,value
"MGL1 (Mus musculus), P49300 (protein) MIYENLQNSRIEEKTQEPGKAPSQSFLWRILSWTHLLLFSLGLSLLLLVVVSVIGSQNSQLRRDLGTLRATLDNTTSKIKAEFQSLDSRADSFEKGISSLKVDVEDHRQELQAGRDLSQKVTSLESTVEKREQALKTDLSDLTDHVQQLRKDLKALTCQLANLKNNGSEVACCPLHWTEHEGSCYWFSESEKSWPEADKYCRLENSHLVVVNSLEEQNFLQNRLANVVSWIGLTDQNGPWRWVDGTDFEKGFKNWAPLQPDNWFGHGLGGGEDCAHITTGGPWNDDVCQRTFRWICEMKLAKES",glycan array binding signal (z-score),[1],1.8
same,glycan array binding signal (z-score),[2],1.75
same,glycan array binding signal (z-score),[3],1.32
same,glycan array binding signal (z-score),[4],0.02
same,glycan array binding signal (z-score),[5],3.01
same,glycan array binding signal (z-score),[6],1.69
same,glycan array binding signal (z-score),[7],1.8
same,glycan array binding signal (z-score),[8],1.67
same,glycan array binding signal (z-score),[9],1.92
same,glycan array binding signal (z-score),[10],1.69
same,glycan array binding signal (z-score),[11],2.31
same,glycan array binding signal (z-score),[12],0.968
same,glycan array binding signal (z-score),[13],1.12
same,glycan array binding signal (z-score),[14],-0.247
same,glycan array binding signal (z-score),[15],1.94
same,glycan array binding signal (z-score),[16],1.23
same,glycan array binding signal (z-score),[17],2.14
same,glycan array binding signal (z-score),[18],-0.392
same,glycan array binding signal (z-score),[19],-0.324
same,glycan array binding signal (z-score),[20],4.54
same,glycan array binding signal (z-score),[21],-0.485
same,glycan array binding signal (z-score),[22],-0.115
same,glycan array binding signal (z-score),[23],-0.459
same,glycan array binding signal (z-score),[24],0.351
same,glycan array binding signal (z-score),[25],1.27
same,glycan array binding signal (z-score),[26],0.507
same,glycan array binding signal (z-score),[27],-0.087
same,glycan array binding signal (z-score),[28],-0.119
same,glycan array binding signal (z-score),[29],-0.635
same,glycan array binding signal (z-score),[30],-0.428
same,glycan array binding signal (z-score),[31],-0.035
same,glycan array binding signal (z-score),[32],-0.163
same,glycan array binding signal (z-score),[33],-0.332
same,glycan array binding signal (z-score),[34],-0.32
same,glycan array binding signal (z-score),[35],-0.2
same,glycan array binding signal (z-score),[36],-0.417
same,glycan array binding signal (z-score),[37],-0.116
same,glycan array binding signal (z-score),[38],1.44
